This passage reports survival results from PubChem BioAssay AID463173 (ICCB-Longwood Screening Facility, Harvard Medical School, 2010).

About 1,700 (3.3%) of roughly 52,000 compounds were called active. No stated cut-off is given here; in the data, active means survival mostly below about 52% (no sharp cut-off); inactive means mostly above about 56%. Some of the results follow.

For the test, the system named is Wild type. Kind of test: growth inhibition of S. aureus wild type versus tarO mutant, primary screen, teichoic acid synthesis inhibitors, RN4220, OD600 (AID 463173). Particulars: S. aureus RN4220 wild type/DeltatarO growth, OD600, 18 h, stronger effect = lower value, screened at 18.75 µg/mL (by protocol).
As to `CCN1CCN(CC2CCCCC2)CC1`, the survival was inactive: 102%. The result for `CC(C)c1ccc(NC(=O)CNC(=O)Cn2ccc3ccccc3c2=O)cc1` reads inactive: 73%. `CN(C(=S)S)C1CCS(=O)(=O)C1` (configuration not stated): the survival is inactive: 100%. The result for `Cc1ccc(Cl)cc1NC(=O)C1CCCN(S(=O)(=O)c2c(C)noc2/C=C/N(C)C)C1` (configuration not stated) reads inactive: 64%; that for `COC(=O)c1c(NC(=O)CCCOc2ccccc2)sc2c1CCC(C)C2` (configuration not stated), inactive: 20%; that for `CCC1(CC)Cc2ccccc2C(=C(C#N)C#N)N1`, inactive: 104%.

Regarding `CC1CCCN(S(=O)(=O)c2ccc(S(=O)(=O)N(Cc3cccs3)Cc3cccs3)cc2)C1` (configuration not stated), the survival was inactive: 112%. Turning to `CCC(=O)N1CCc2cc(S(=O)(=O)CCC(=O)N(C)c3ccc(OC)cc3)ccc21`, the survival was inactive: 89%. As for `O=c1[nH]ncc(NCCN2CCOCC2)c1Cl`, the survival was inactive: 77%.

As for `Fc1ccc(C2=NC(c3cccc(C(F)(F)F)c3)=Nc3ccccc3N2)cc1`, the survival is inactive: 71%.

For `COc1cc2c(cc1OC)C(c1cc3cc4c(cc3[nH]c1=O)OCO4)N(C(=O)C1CCC1)CC2` (configuration not stated), the survival is inactive: 116%. Regarding `Cc1ccc2nc(/C(C#N)=C/c3ccc(-c4ccc(F)cc4F)o3)[nH]c2c1`, the survival was inactive: 26%. For `Cc1cc(Nc2cccc(Cl)c2)nc2ccc(NC(=O)c3ccc(F)cc3Cl)cc12` the value was inactive: 75%; for `O=C(Nc1ccccc1C(=O)OCc1cc(=O)n2ccsc2n1)c1cccc(F)c1`, inactive: 120%.

As to `COc1ccc(CCCc2nnc(SCC(=O)Nc3ccc(C)c(C)c3)o2)cc1`, the survival was inactive: 66%.

As to `CCc1ccc(S(=O)(=O)c2cn(C)c3cc(N4CCN(CC)CC4)c(F)cc3c2=O)cc1`, the survival is inactive: 70%. For `Cc1cc(C)c2c(CC(=O)Nc3nnc(CC(C)C)s3)coc2c1` the value was inactive: 89%; for `CC(C)NS(=O)(=O)c1ccc(OCC(=O)N2CCN(c3ccccc3F)CC2)cc1`, inactive: 89%. Take `COCCN1C(=O)C2C3c4ccccc4C(c4ccccc43)C2C1=O` (configuration not stated): the survival is inactive: 98%. `CSc1cccc(NC(=O)c2ccc3c(c2)c(C)c(C)n3Cc2ccc(F)cc2)c1`: the survival is inactive: 73%. On to `Cc1ccc(CN2CCC(CNC(=O)Nc3c(C)cccc3C)C2)cc1` (configuration not stated), for which the survival was inactive: 94%. In the case of `COc1ccccc1-c1c(C)nn2c(C(F)(F)F)cc(-c3ccccc3)nc12`, the survival was inactive: 39%. For the compound `O=S1(=O)N=C(Nc2cccc(C(F)(F)F)c2)c2ccccc21`, the survival is inactive: 83%.

As to `O=C(c1ccc(CS(=O)c2ccccc2Cl)o1)N1CCN(c2ccccc2F)CC1` (configuration not stated), the survival was inactive: 80%. As to `COc1cccc(C(=O)N(Cc2cccc(Cl)c2)Cc2ccco2)c1`, the survival was inactive: 75%. For `O=C(CCC1N=C2c3ccccc3N=C(SCc3cccc(Cl)c3)N2C1=O)NCc1cccs1` (configuration not stated) the value was inactive: 75%; for `COc1cc(C(=O)NCCSc2c(-c3ccccc3)[nH]c3ccccc23)cc(OC)c1OC`, inactive: 63%; for `CC(C)(C)c1ccc(OCC(=O)Nc2c(C(=O)c3ccc(F)cc3)oc3ccccc23)cc1`, inactive: 79%. With `CCOC(=O)c1ccccc1NC(=O)CSc1ncc2c(n1)-c1ccccc1N(CC)S2(=O)=O`, the survival was inactive: 88%.

Consider `COc1ccc2c(c1)N(C)/C(=C1/SC(=S)N(C)C1=O)S2`, for which the survival is inactive: 122%.

As to `Cc1ccc(NC(=O)Cn2c(=O)nc(-c3ccccc3F)c3cc(Cl)ccc32)c(Br)c1`, the survival was inactive: 94%. In the case of `CCC(C)n1c(=N)c(S(=O)(=O)c2ccccc2)cc2c(=O)n3ccccc3nc21` (configuration not stated), the survival is inactive: 73%. `Cc1nn(C)c2c1c(-c1ccccc1)cc(=O)n2CC(=O)NC(C)(C)C`: the survival is inactive: 126%. `COc1cc2nc(SCc3ccc(F)cc3)n3nc(CCn4c(C)nc5ccccc54)nc3c2cc1OC`: the survival is inactive: 87%. Consider `CCOc1ccccc1NC(=O)N1CCN(Cc2cc(=O)n3nc(-c4ccc(C)cc4)sc3n2)CC1`, for which the survival is inactive: 73%. Consider `CCOc1ccc(S(=O)(=O)N(CC(=O)NCCSCc2ccccc2)c2ccccc2)cc1`, for which the survival was inactive: 115%.

Regarding `Clc1ccc(NCCC2=CCCCC2)nn1`, the survival was inactive: 127%. In the case of `COc1cc(Cl)c(C)cc1NC(=O)NC1COc2ccccc2C1` (configuration not stated), the survival was inactive: 68%. As for `CCc1ccc(-c2ccc3nnc(SCC(=O)Nc4cccc(C(C)=O)c4)n3n2)cc1`, the survival was inactive: 71%. For `CCn1cc(CNC(=O)CCCSc2nc(-c3ccco3)cc(C(F)(F)F)n2)cn1` the value was inactive: 110%. Consider `COc1ccc(NC(=O)c2c(C)oc3ccc(O)c(CN4CCCC(C)C4)c23)cc1` (configuration not stated), for which the survival is inactive: 92%. Regarding `CN(C1CCCCC1)S(=O)(=O)c1ccc(S(=O)(=O)N(Cc2cccs2)CC2CCCO2)cc1` (configuration not stated), the survival is inactive: 110%. `COc1ccc(NC(=O)c2oc3ccccc3c2NC(=O)c2cc(OC)c(OC)c(OC)c2)cc1`: the survival was inactive: 104%.

Consider `COc1ccc(CCNC(=O)CN2C(=O)COc3ccccc32)cc1OC`, for which the survival was inactive: 131%. For `COc1cccc(CNC(=O)c2ccc(CS(=O)c3ccccc3)o2)c1` (configuration not stated) the value was inactive: 109%; for `COc1ccc(C2=C(N3CCN(c4cc(Cl)ccc4C)CC3)c3ccccc3C2=O)cc1`, inactive: 85%.

For the compound `COc1ccc(CCNC(=O)Cn2c(-c3cccs3)cc3cc(F)ccc32)cc1OC`, the survival was inactive: 86%. In the case of `CCOC(=O)N1CCN(C(=O)c2cnn(-c3cccc(F)c3)c2-n2cccc2)CC1`, the survival is inactive: 81%.

Turning to `CCc1ccccc1NC(=O)C(CCSC)NS(=O)(=O)c1ccc2c(c1)oc(=O)n2C` (configuration not stated), the survival is inactive: 92%. Regarding `Cc1ccccc1-c1nn2c(=O)cc(CN3CCN(C(=O)c4ccccc4Br)CC3)nc2s1`, the survival is inactive: 136%.

As to `N#Cc1c(-c2ccccc2)cc(-c2ccccc2)nc1SCC(=O)Nc1ccc(Cl)cc1`, the survival is inactive: 137%.

In the case of `CC(C(=O)Nc1cccc(N)c1)n1nnc2ccccc21` (configuration not stated), the survival is inactive: 107%. With `Cc1cccc(Oc2nc3c(c(=O)n(C)c(=O)n3C)n2C)c1C`, the survival is inactive: 90%.

For the compound `CC1CCN(S(=O)(=O)c2ccc3nc(N4CCN(c5ccccc5)CC4)ccc3c2)CC1`, the survival was inactive: 77%. Consider `Oc1c(C(c2ccc(Cl)cc2)N2CCOCC2)sc2nc(-c3ccco3)nn12` (configuration not stated), for which the survival is inactive: 118%. The result for `Fc1cccc(CSc2nc(NCCc3ccccc3)c3ccccc3n2)c1` reads active: -3%; that for `COc1ccccc1OCC(=O)Nc1cc(-c2ccc(C)cc2)no1`, inactive: 85%.
